No constants are given. Whether binding was seen depends on the method and setting. Binding seen in cells or lysates may run through a third protein. Some binding calls cover weakened binding; strength is not graded here. For part of these data: Tags and fused reporters may be left off the sequences shown.

Protein sequences, listed by entry. Tags and fused reporters are not part of them. Lines headed by an entry give the natural chain unless they say otherwise; changes in a name come on top.
UniProt P45481: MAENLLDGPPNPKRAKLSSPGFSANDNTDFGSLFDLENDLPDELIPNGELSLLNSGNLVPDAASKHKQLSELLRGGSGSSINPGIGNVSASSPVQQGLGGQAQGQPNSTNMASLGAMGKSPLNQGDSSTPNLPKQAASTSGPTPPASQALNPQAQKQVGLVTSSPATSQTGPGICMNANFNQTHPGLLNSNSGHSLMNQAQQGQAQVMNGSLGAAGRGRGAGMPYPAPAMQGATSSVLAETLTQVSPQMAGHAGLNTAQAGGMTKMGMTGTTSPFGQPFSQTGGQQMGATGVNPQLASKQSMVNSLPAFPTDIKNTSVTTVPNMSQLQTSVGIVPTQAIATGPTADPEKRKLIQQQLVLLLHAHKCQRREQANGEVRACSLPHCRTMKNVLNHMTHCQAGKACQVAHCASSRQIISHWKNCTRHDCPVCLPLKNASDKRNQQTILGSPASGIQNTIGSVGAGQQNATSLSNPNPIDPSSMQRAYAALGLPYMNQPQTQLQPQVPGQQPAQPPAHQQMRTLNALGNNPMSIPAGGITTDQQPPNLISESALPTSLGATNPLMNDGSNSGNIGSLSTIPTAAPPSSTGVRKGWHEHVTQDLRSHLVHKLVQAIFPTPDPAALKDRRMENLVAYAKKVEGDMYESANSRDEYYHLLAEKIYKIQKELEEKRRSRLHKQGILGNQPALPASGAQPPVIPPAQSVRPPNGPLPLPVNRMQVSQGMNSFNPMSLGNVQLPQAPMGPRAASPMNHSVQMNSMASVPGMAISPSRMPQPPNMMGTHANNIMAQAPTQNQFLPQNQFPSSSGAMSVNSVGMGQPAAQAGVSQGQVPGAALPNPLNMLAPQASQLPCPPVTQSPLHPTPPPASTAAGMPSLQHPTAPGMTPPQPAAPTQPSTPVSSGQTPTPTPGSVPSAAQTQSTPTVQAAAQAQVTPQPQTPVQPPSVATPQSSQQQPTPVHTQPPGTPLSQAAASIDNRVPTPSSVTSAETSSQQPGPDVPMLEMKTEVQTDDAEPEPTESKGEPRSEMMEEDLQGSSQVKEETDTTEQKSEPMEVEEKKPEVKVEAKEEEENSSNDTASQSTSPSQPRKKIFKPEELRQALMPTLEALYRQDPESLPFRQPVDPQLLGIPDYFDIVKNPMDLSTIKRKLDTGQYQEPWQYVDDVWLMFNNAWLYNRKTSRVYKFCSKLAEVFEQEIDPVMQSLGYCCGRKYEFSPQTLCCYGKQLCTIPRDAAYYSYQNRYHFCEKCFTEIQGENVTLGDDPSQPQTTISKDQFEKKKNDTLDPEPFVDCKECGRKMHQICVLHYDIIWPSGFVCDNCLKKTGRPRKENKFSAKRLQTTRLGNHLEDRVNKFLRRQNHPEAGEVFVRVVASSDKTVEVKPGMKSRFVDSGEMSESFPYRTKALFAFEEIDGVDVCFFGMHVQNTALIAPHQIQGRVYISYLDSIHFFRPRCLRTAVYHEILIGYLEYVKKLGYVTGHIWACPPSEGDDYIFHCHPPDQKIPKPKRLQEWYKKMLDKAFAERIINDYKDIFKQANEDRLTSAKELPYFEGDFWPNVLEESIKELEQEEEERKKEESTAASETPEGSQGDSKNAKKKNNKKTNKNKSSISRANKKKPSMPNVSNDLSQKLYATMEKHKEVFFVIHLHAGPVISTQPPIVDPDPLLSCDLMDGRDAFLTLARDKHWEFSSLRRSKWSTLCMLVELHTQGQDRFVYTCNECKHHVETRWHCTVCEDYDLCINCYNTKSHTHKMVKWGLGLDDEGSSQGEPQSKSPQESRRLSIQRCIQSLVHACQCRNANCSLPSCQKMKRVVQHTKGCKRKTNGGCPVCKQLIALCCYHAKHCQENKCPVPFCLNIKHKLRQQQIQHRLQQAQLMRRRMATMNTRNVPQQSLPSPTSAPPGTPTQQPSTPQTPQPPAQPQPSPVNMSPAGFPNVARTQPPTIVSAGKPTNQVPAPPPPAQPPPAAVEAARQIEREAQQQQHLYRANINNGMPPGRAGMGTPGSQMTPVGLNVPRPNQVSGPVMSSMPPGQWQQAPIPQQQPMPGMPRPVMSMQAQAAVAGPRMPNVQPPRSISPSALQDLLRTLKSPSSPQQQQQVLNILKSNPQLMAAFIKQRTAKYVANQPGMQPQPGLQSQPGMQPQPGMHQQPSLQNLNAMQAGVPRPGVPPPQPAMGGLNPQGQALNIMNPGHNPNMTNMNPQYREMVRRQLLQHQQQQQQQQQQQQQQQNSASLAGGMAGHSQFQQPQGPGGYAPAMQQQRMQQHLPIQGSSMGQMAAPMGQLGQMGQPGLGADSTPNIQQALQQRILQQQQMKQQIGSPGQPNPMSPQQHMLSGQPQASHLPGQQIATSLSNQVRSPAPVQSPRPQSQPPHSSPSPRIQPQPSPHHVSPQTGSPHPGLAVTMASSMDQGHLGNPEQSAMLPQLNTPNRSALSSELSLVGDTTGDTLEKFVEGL

Experiment [1] concerns the target T1, Flag-Stat6 (wild type) (mouse) (UniProt P52633).
T1 sequence: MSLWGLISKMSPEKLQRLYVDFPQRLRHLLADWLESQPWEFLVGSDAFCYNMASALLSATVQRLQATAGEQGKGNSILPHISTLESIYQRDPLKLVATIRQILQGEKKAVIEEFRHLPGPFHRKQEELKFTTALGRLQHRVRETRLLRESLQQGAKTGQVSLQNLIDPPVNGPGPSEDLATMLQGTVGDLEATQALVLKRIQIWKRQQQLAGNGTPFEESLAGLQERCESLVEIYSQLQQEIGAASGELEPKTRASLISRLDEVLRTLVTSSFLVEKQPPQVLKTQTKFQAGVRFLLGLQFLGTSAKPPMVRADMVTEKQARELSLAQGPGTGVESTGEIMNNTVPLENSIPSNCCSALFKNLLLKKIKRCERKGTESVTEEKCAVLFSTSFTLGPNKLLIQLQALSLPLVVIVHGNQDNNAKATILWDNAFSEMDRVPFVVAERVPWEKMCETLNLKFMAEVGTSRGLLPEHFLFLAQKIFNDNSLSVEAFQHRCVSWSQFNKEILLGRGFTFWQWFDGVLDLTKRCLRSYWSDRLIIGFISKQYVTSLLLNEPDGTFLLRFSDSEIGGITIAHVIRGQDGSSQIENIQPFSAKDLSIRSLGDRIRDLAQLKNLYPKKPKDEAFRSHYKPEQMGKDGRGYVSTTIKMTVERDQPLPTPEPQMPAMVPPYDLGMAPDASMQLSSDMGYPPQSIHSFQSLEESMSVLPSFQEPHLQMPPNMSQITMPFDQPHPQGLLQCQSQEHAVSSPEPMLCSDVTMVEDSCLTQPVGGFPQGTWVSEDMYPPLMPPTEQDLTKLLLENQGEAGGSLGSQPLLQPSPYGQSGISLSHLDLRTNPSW
Put plainly: co-IP; 293T cells transfected with the expression vectors, with or without Trim24 co-expressed; lysed in RIPA buffer; IP with anti-Flag, protein-A/G magnetic beads, immunoblot with anti-HA and anti-Flag. In general terms: In western blotting, separated proteins are transferred to a membrane and probed.

Substrate in experiment [2]: CBP, endogenous in immortalized mouse bone marrow-derived macrophages (mouse (endogenous in iBMDMs)) (UniProt P45481)
The experiment in a line: co-IP; endogenous proteins in control iBMDMs, unstimulated or stimulated with IL-4 for 30 min; lysed in RIPA buffer; IP with anti-CBP, immunoblot with anti-CBP, anti-Stat6 and anti-Trim24.

Substrate in experiment [3]: CBP K119R mutant as tested with Trim24 in Supplementary Fig. 2f (UniProt P45481)
Put plainly: co-IP; Supplementary Fig. 2f; legend not shown; co-IP is taken as the method because it is the only interaction method in the paper's methods.

Substrate in experiment [4]: CBP (wild type) as tested with Trim24 in Supplementary Fig. 2f (UniProt P45481)
Described as above.

Substrate in experiment [5]: CBP, endogenous in immortalized mouse bone marrow-derived macrophages (mouse (endogenous in iBMDMs)) (UniProt P45481)
Put plainly: co-IP; endogenous proteins in Trim24-knockdown iBMDMs, unstimulated or stimulated with IL-4 for 30 min; IP with anti-CBP, immunoblot with anti-CBP, anti-Stat6 and anti-Trim24.

For the molecule “HA-CBP (wild type) (from UniProt P45481 1-2441)”, in experiment [1], the binding result is recorded as “binds”.

B1: Trim24, endogenous in immortalized mouse bone marrow-derived macrophages (protein, UniProt Q64127 1-1051)
chain: MEVAVEKAAAAAAPAGGPAAAAPSGENEAESRQGPDSESGGEASRLNLLDTCAVCHQNIQSRVPKLLPCLHSFCQRCLPAPQRYLMLTAPALGSAETPPPAPAPAPAPGSPAGGPSPFATQVGVIRCPVCSQECAERHIIDNFFVKDTTEVPSSTVEKSNQVCTSCEDNAEANGFCVECVEWLCKTCIRAHQRVKFTKDHTVRQKEEVSPEAVGVTSQRPVFCPFHKKEQLKLYCETCDKLTCRDCQLLEHKEHRYQFIEEAFQNQKVIIDTLITKLMEKTKYIKYTGNQIQNRIIEINQNQKQVEQDIKVAIFTLMVEINKKGKALLHQLESLAKDHRMKLMQQQQEVAGLSKQLEHVMHFSKWAVSSGSSTALLYSKRLITYRLRHLLRARCDASPVTNTTIQFHCDPSFWAQNIINLGSLVIEDKESQPQMPKQNPVVEQSSQPPGGLPSNQLSKFPTQISLAQLRLQHIQQQVMAQRQQVQRRPAPVGLPNPRMQGPIQQPSISHQHPPPRLINFQNHSPKPNGPVLPPYPQQLRYSPSQNVPRQTTIKPNPLQMAFLAQQAIKQWQISSVQAPPTTASSSSSTPSSPTITSAAGYDGKAFSSPMIDLSAPVGGSYNLPSLPDIDCSSTIMLDNIARKDTGVDHAQPRPPSNRTVQSPNSSVPSPGLAGPVTMTSVHPPIRSPSASSVGSRGSSGSSSKPAGADSTHKVPVVMLEPIRIKQENSGPPENYDFPVVIVKQESDEESRPQNTNYPRSILTSLLLNSSQSSASEETVLRSDAPDSTGDQPGLHQENSSNGKSEWSDASQKSPVHVGETRKEDDPNEDWCAVCQNGGELLCCEKCPKVFHLTCHVPTLTNFPSGEWICTFCRDLSKPEVDYDCDVPSHHSEKRKSEGLTKLTPIDKRKCERLLLFLYCHEMSLAFQDPVPLTVPDYYKIIKNPMDLSTIKKRLQEDYCMYTKPEDFVADFRLIFQNCAEFNEPDSEVANAGIKLESYFEELLKNLYPEKRFPKVEFRHEAEDCKFSDDSDDDFVQPRKKRLKSTEDRQLLK
Regarding B1, in experiment [2], the binding entry was “binds”.

B2: HA-Trim24 (full length) (protein, UniProt Q64127-1 1-1051)
chain: B1 chain
As to B2, the binding result in experiment [3] and in experiment [4] was “binds” in each case.

B3: Stat6, endogenous in immortalized mouse bone marrow-derived macrophages (protein, UniProt P52633 1-837)
chain: T1 sequence
On to B3, for which the binding result is given as “binds” in experiment [2] and “no binding (condition: Trim24 knockdown)” in experiment [5].

(Values after paper PMC6761150.)
